# These are yes or no findings as the source states them, for the method shown. In cells and extracts the contact can be indirect. Some entries that bind do so weakly or less than the wild type. Tags and fused reporters may be left off the sequences shown.
# T1: 3×Flag-BID 1-195 (UniProt P55957)
# T1 sequence: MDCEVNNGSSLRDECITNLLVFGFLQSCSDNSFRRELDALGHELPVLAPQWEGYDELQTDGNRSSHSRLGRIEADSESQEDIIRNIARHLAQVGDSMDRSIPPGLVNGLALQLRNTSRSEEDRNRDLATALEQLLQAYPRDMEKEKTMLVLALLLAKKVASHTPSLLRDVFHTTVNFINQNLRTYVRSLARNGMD
# Target: T1, 3×Flag-BID 1-195
# Test: co-IP; HEK293T cells transfected with the indicated plasmids for 24 h; lysates (2000 μg protein) incubated with anti-Flag magnetic beads overnight at 4°C, washed 3 times with lysis buffer; immunoblotted with antibodies against Flag or HA
row,Binder,binding
1,"Casp4 p33/p10 form (complex, UniProt P49662 1-289; P49662 290-377) chain 1: MAEGNHRKKPLKVLESLGKDFLTGVLDNLVEQNVLNWKEEEKKKYYDAKTEDKVRVMADSMQEKQRMAGQMLLQTFFNIDQISPNKKAHPNMEAGPPESGESTDALKLCPHEEFLRLCKERAEEIYPIKERNNRTRLALIICNTEFDHLPPRNGADFDITGMKELLEGLDYSVDVEENLTARDMESALRAFATRPEHKSSDSTFLVLMSHGILEGICGTVHDEKKPDVLLYDTIFQIFNNRNCLSLKDKPKVIIVQAARGANRGELWVRDSPASLEVASSQSSENLEED chain 2: AVYKTHVEKDFIAFCSSTPHNVSWRDSTMGSIFITQLITCFQKYSWCCHLEEVFRKVQQSFETPRAKAQMPTIERLSMTRYFYLFPGN",binds
2,"Casp4 p22/p10 form (complex, UniProt P49662 102-289; P49662 290-377) chain 1: STDALKLCPHEEFLRLCKERAEEIYPIKERNNRTRLALIICNTEFDHLPPRNGADFDITGMKELLEGLDYSVDVEENLTARDMESALRAFATRPEHKSSDSTFLVLMSHGILEGICGTVHDEKKPDVLLYDTIFQIFNNRNCLSLKDKPKVIIVQAARGANRGELWVRDSPASLEVASSQSSENLEED chain 2: AVYKTHVEKDFIAFCSSTPHNVSWRDSTMGSIFITQLITCFQKYSWCCHLEEVFRKVQQSFETPRAKAQMPTIERLSMTRYFYLFPGN",no binding
3,"Casp4-HA 1-289 C258A (p33) (domain or fragment, UniProt P49662 1-289) MAEGNHRKKPLKVLESLGKDFLTGVLDNLVEQNVLNWKEEEKKKYYDAKTEDKVRVMADSMQEKQRMAGQMLLQTFFNIDQISPNKKAHPNMEAGPPESGESTDALKLCPHEEFLRLCKERAEEIYPIKERNNRTRLALIICNTEFDHLPPRNGADFDITGMKELLEGLDYSVDVEENLTARDMESALRAFATRPEHKSSDSTFLVLMSHGILEGICGTVHDEKKPDVLLYDTIFQIFNNRNCLSLKDKPKVIIVQAARGANRGELWVRDSPASLEVASSQSSENLEED",no binding

# Continued, values first:
row,binding,Binder
1,no binding,"Casp4-HA 1-377 C258A (FL) (enzyme, UniProt P49662 1-377) MAEGNHRKKPLKVLESLGKDFLTGVLDNLVEQNVLNWKEEEKKKYYDAKTEDKVRVMADSMQEKQRMAGQMLLQTFFNIDQISPNKKAHPNMEAGPPESGESTDALKLCPHEEFLRLCKERAEEIYPIKERNNRTRLALIICNTEFDHLPPRNGADFDITGMKELLEGLDYSVDVEENLTARDMESALRAFATRPEHKSSDSTFLVLMSHGILEGICGTVHDEKKPDVLLYDTIFQIFNNRNCLSLKDKPKVIIVQAARGANRGELWVRDSPASLEVASSQSSENLEEDAVYKTHVEKDFIAFCSSTPHNVSWRDSTMGSIFITQLITCFQKYSWCCHLEEVFRKVQQSFETPRAKAQMPTIERLSMTRYFYLFPGN"
2,no binding,"Casp4-HA 102-289 C258A (p22) (domain or fragment, UniProt P49662 102-289) STDALKLCPHEEFLRLCKERAEEIYPIKERNNRTRLALIICNTEFDHLPPRNGADFDITGMKELLEGLDYSVDVEENLTARDMESALRAFATRPEHKSSDSTFLVLMSHGILEGICGTVHDEKKPDVLLYDTIFQIFNNRNCLSLKDKPKVIIVQAARGANRGELWVRDSPASLEVASSQSSENLEED"

# From PMC11667815
